The other results are listed elsewhere or left out.
These sequences were tested against T1, OsWOX13 (Oryza sativa, UniProt Q5QMM3 1-267) (assay: protein-binding microarray (RPBM); PBS, 2% BSA, 51.3 ng/ul salmon testes DNA, 50 uM zinc acetate, 200 nM TF, 25 C, 1 h; high values mean tight binding). Conditions: protein: recombinant; tags: N-terminal polyhistidine and DsRed monomer fusion (pET32a); label: CyDye5-dUTP incorporated in the synthesized complementary strand; 3' TTTTT single-stranded linker to array surface; dsDNA, one strand shown.
T1 sequence: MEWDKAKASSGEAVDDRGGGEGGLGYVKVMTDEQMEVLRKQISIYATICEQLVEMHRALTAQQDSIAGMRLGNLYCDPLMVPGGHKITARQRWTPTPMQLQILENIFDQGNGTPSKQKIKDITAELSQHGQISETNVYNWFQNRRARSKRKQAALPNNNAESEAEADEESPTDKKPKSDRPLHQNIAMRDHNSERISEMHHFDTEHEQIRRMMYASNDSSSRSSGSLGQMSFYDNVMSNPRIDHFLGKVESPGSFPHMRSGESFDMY
Outline: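 In PBS with 2% BSA, salmon testes DNA and 50 µM zinc acetate, 200 nM protein was incubated on a custom Agilent array at 25 °C for 1 h and then washed off. The array had been made double-stranded by primer extension with Cy5-dUTP and blocked with 2% BSA. The proteins were transcription factors fused N-terminally to polyhistidine and DsRed, expressed in E. coli BL21-CodonPlus and purified on Ni–NTA. The binding signal is per-feature fluorescence intensity (arbitrary units) from an Axon 4000B scanner.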
For “ATAATTAAATTTTGGTAAAGTTGAAAATAGCAACCAATTGCGGAGTCACCTAGTGCAG”, the binding signal was 29600 fluorescence intensity (a.u.). For “CAACAATCATAATCATTACACGAGACATTAAATATCAATGCGGAGTCACCTAGTGCAG”, the binding signal was 11400 fluorescence intensity (a.u.). In the case of “ATGGTGATGGGGACAATGACTATGACAGCGGCGATGAGCTCGGAGTCACCTAGTGCAG”, the binding signal is reported as 5900 fluorescence intensity (a.u.). With “AGTATCAATTAAACCAATAATAATCTCATCCTCATTGTTTCGGAGTCACCTAGTGCAG” the binding signal was 19500 fluorescence intensity (a.u.). With “TTAATTATAACCAAATTACCTCAAACGAAATTGCTTCACACGGAGTCACCTAGTGCAG” the binding signal was 7110 fluorescence intensity (a.u.). In the case of “GAAGATTGTGTCGATGATGAAATCCGAGGGGCTGTTCGAGCGGAGTCACCTAGTGCAG”, the binding signal is reported as 4930 fluorescence intensity (a.u.). “ATGCTGCAATCCAATTGATAATCACATTTACCACCGGATACGGAGTCACCTAGTGCAG” was tested, and the binding signal was 11300 fluorescence intensity (a.u.). “AGAGAGTTGCATGATTGCCACATTCAAATATTTGAGCTACCGGAGTCACCTAGTGCAG” was tested, and the binding signal was 4980 fluorescence intensity (a.u.). In the case of “CTGTAATCTTGCTGATTGAATTCTATTTTGATGTGCAGAGCGGAGTCACCTAGTGCAG”, the binding signal is reported as 44800 fluorescence intensity (a.u.). With “ATGATTAATGGAGTCCAAAATTGTACAGCAGCAGTAACCCCGGAGTCACCTAGTGCAG” the binding signal was 31300 fluorescence intensity (a.u.). For “ATCAGGATGATTAGGCCCATTGTAATGACCCTACTGCTAACGGAGTCACCTAGTGCAG”, the binding signal was 9580 fluorescence intensity (a.u.). “GCACTCCTAAATCATGGAGATTGATGGAAAACAAATCCAACGGAGTCACCTAGTGCAG” was tested, and the binding signal was 23000 fluorescence intensity (a.u.). With “TCATTGACGAGTCGATCTATGATAGCCTGATGGTGATTAGCGGAGTCACCTAGTGCAG” the binding signal was 12900 fluorescence intensity (a.u.). With “CAGATTTCTTATTGATTGTCCTAAAAGACCTATTATCACGCGGAGTCACCTAGTGCAG” the binding signal was 27600 fluorescence intensity (a.u.). “ATGTTTGATTTAGATTATTAAGCAGATTATTATTGCAAACCGGAGTCACCTAGTGCAG” was tested, and the binding signal was 27300 fluorescence intensity (a.u.). “ACTTGTTGAAAATTGATTGCTTTGTTGTTGTAGTGTTTACCGGAGTCACCTAGTGCAG” was tested, and the binding signal was 23600 fluorescence intensity (a.u.). For “TAAATAATTATATTTTAGGATAAATTTTGAATGTTAGAAGCGGAGTCACCTAGTGCAG”, the binding signal was 23100 fluorescence intensity (a.u.). “CCCAATCACCCTACCATCATTCATGTTACAAGAGTACCTGCGGAGTCACCTAGTGCAG” was tested, and the binding signal was 3390 fluorescence intensity (a.u.). For “ATTCAGTCATTTCCTAATTGTATTTCTATATGGACTCTAGCGGAGTCACCTAGTGCAG”, the binding signal was 11500 fluorescence intensity (a.u.). “ATCCAGATTTTCCATTTCATTAATTATTACCGCTCCAACCCGGAGTCACCTAGTGCAG” was tested, and the binding signal was 8500 fluorescence intensity (a.u.). In the case of “CCTGTAATGGATGCGCGGAATTGACCCAAGGCCAAGGCACCGGAGTCACCTAGTGCAG”, the binding signal is reported as 6100 fluorescence intensity (a.u.). “TCGCAATCAAGAAATCAAATGTGACAGTCCAAAGGGAGATCGGAGTCACCTAGTGCAG” was tested, and the binding signal was 18300 fluorescence intensity (a.u.). For “GTCCACCATTACTTCCAAATTGGGATTTATCACACATCACCGGAGTCACCTAGTGCAG”, the binding signal was 3210 fluorescence intensity (a.u.). With “AAAACAAATTATACTGGCGCAAATTCTTTTCGCGATCTTGCGGAGTCACCTAGTGCAG” the binding signal was 6940 fluorescence intensity (a.u.). “TATAGATTTAATTCATTGTTTATGTTTAGAACTATCTCATCGGAGTCACCTAGTGCAG” was tested, and the binding signal was 4940 fluorescence intensity (a.u.). For “CCTTCCGTCCAATTAACTGCGACCAAATCTGGGTTTATTTCGGAGTCACCTAGTGCAG”, the binding signal was 9320 fluorescence intensity (a.u.). For “TGTGACAGGGATTTGGAATAAGTCCCTGAACCAAACAGCCCGGAGTCACCTAGTGCAG”, the binding signal was 4450 fluorescence intensity (a.u.). For “ATTTCTGATTTCTCCTTTCTCCCCTCGAGTCTGATCCTCCCGGAGTCACCTAGTGCAG”, the binding signal was 6370 fluorescence intensity (a.u.). In the case of “ATGATTGCAGCCTCATATGCGTTGCACACTTGTCACAGCACGGAGTCACCTAGTGCAG”, the binding signal is reported as 11500 fluorescence intensity (a.u.). “TTGCTAATTAATTTATGTTAATTAGTAGCTAACCTAGCTGCGGAGTCACCTAGTGCAG” was tested, and the binding signal was 65200 fluorescence intensity (a.u.). “TCACTTCTTGTTATCAATTATGACATGTCACATATGTATACGGAGTCACCTAGTGCAG” was tested, and the binding signal was 10400 fluorescence intensity (a.u.). In the case of “GATGAATTTAATTTAATTTATTAGTTAGTGAGTCCCGAGGCGGAGTCACCTAGTGCAG”, the binding signal is reported as 43500 fluorescence intensity (a.u.). For “ATATATTATGTGCACAAATTGAAGAAGAAGCTAACACGATCGGAGTCACCTAGTGCAG”, the binding signal was 3220 fluorescence intensity (a.u.). For “ATTAATTAAAATCGCGCCCAATTAATCATTTAATCCATCCCGGAGTCACCTAGTGCAG”, the binding signal was 40700 fluorescence intensity (a.u.). “ATATTATTTATAAATTGTGTGTGCAACTGACTTGTGGGCCCGGAGTCACCTAGTGCAG” was tested, and the binding signal was 3490 fluorescence intensity (a.u.). With “TTTAATTCTATGAAATTTCAATCCGTGCAAGTTTTGGAAACGGAGTCACCTAGTGCAG” the binding signal was 8150 fluorescence intensity (a.u.). In the case of “ATAATACAAATTGTATGTAACTTTTCAAAGATCCTGTGATCGGAGTCACCTAGTGCAG”, the binding signal is reported as 4880 fluorescence intensity (a.u.). “AGCAATTAGGATTAAAAGATTTGTCTCGTAAATTAGTCGCCGGAGTCACCTAGTGCAG” was tested, and the binding signal was 11300 fluorescence intensity (a.u.). In the case of “TAATATCCACTTAATTAATTAACTAAAGATATAAGATATACGGAGTCACCTAGTGCAG”, the binding signal is reported as 8660 fluorescence intensity (a.u.). In the case of “TTTTGTATGAACCAATTAGATTGGTCCGTAGTTTACCTGTCGGAGTCACCTAGTGCAG”, the binding signal is reported as 5440 fluorescence intensity (a.u.). With “CAAATTAGATAATGCAAAGTTGAATGATTGTTCAAAGTCACGGAGTCACCTAGTGCAG” the binding signal was 21000 fluorescence intensity (a.u.). “ACAGGAAGGTAATTGAATCGTATGTCCAAACGAGGCTTCTCGGAGTCACCTAGTGCAG” was tested, and the binding signal was 5880 fluorescence intensity (a.u.). With “TGATGATGGATGGAGTAGTGATTTCCAGCGGGTGATCGATCGGAGTCACCTAGTGCAG” the binding signal was 11300 fluorescence intensity (a.u.). In the case of “ATCTGCGCGGTAAAATCAATAAAACCTTCATTTCACTTAACGGAGTCACCTAGTGCAG”, the binding signal is reported as 10200 fluorescence intensity (a.u.). For “TGTTTAGTTAATCTACTGTTAACTTTAGTATTAGCCGTGGCGGAGTCACCTAGTGCAG”, the binding signal was 4940 fluorescence intensity (a.u.). In the case of “CTCATAACACTTTCCTAATTGCCTCATATGCGGCCTTCCCCGGAGTCACCTAGTGCAG”, the binding signal is reported as 7620 fluorescence intensity (a.u.). “TCCTTTCATAATTAATTGCGTGGGAAATTATTTATTTAGCCGGAGTCACCTAGTGCAG” was tested, and the binding signal was 39400 fluorescence intensity (a.u.). With “TAAGAAGATGCCATCAATCAAACACACCCATGGTTTCACACGGAGTCACCTAGTGCAG” the binding signal was 4780 fluorescence intensity (a.u.). For “ATAAACAAATTCCAAATTGACTTTTAGGCTGACGCGGAGCCGGAGTCACCTAGTGCAG”, the binding signal was 21000 fluorescence intensity (a.u.). For “TTTAACAAGCTAATTATTGACCAATGACGTGGCTGAACAGCGGAGTCACCTAGTGCAG”, the binding signal was 31200 fluorescence intensity (a.u.). For “CTATTATTGATTGCTCTACGGATGGCATGGATGGAGGTTGCGGAGTCACCTAGTGCAG”, the binding signal was 47400 fluorescence intensity (a.u.). In the case of “CTGAATAAATTTAGCTGGTTGTGTGGTGGAGGAGATGTGTCGGAGTCACCTAGTGCAG”, the binding signal is reported as 5770 fluorescence intensity (a.u.). “CAAAATGGTTAACGACGTGATTGGCTCTATACAATTTGAACGGAGTCACCTAGTGCAG” was tested, and the binding signal was 30000 fluorescence intensity (a.u.). “AGCCAAATTAGTACCAAACTTTGACCAACTTTCGCTAGGACGGAGTCACCTAGTGCAG” was tested, and the binding signal was 13900 fluorescence intensity (a.u.).
